# Assay results published in PubChem BioAssay (NCATS).
# “And” between values parts separate entries of the source, which are not always exact repeats. Identical values can stand only once. Inconclusive results, whose numbers are uncertain, are shown with a selection of clear calls. A call without a number means that no potency is given here. Potencies of inconclusive entries are doubtful fits and often do not repeat. The source made the active and inactive calls. The call rests on the fitted dose curve; in most records, active means well fitted cell-killing curve with a large enough effect; inconclusive means small, poorly fitted or top-dose-only effect, or effect the other way; inactive means flat fitted curve, though single readings scatter.
# System: HeLa
# Test: Primary qHTS to identify gynecologic anti-cancer compounds using libraries of approved drugs and bioactive compounds (AID 1345084); further: nearly all actives have a fitted effect of over 55% in size
# Conditions: Gynecologic cancer cell panel viability, ATPlite luminescence, 48 h; series mostly up to 57.5 µM
# Outline: (§1)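 48 h compound exposure at 37 C, 5% CO2; five-point qHTS. ATPlite luminescence readout of cell ATP.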
# Potency means the concentration at half of the fitted maximal effect; tags describe the fitted curve by direction and shape.
Compound,Potency,"activity change, negative = cytotoxicity"
CC(=O)Nc1ccc(OC[C@](C)(O)C(=O)Nc2ccc([N+](=O)[O-])c(C(F)(F)F)c2)cc1,inactive,–
C[C@]12CC[C@H](O)CC1=CC[C@@H]1[C@@H]2CC[C@]2(C)C(=O)CC[C@@H]12,"active: 14.1 µM and inconclusive: 15.8 µM [cytotoxic, partial curve]",–
O=c1[nH]oc2c1CCNC2,inactive,–
COc1cc(O)c2c(c1)/C=C/C[C@@H](O)[C@@H](O)C(=O)CCC[C@H](C)OC2=O,inactive,–
CCN(CC)CCN1C(=O)CN=C(c2ccccc2F)c2cc(Cl)ccc21,inactive,–
CCN(C(C)=O)c1cccc(-c2ccnc3c(C#N)cnn23)c1,inactive,–
C[C@H]1CC[C@@H]2[C@@H](C)[C@H]3[C@H](C[C@H]4[C@@H]5CC=C6CC(O[C@@H]7O[C@H](CO)[C@@H](O)[C@H](O[C@@H]8O[C@H](CO)[C@@H](O)[C@H](O)[C@H]8O)[C@@H]7O[C@@H]7O[C@@H](C)[C@H](O)[C@@H](O)[C@H]7O)CC[C@]6(C)[C@H]5CC[C@]34C)N2C1 (stereo partly drawn),–,inactive: 8.23% [at 11.6 µM]
COC(=O)C1(C)CCC(=O)C2(C)c3c(O)cc(C(C)C)cc3C(O)C(OC(C)=O)C12 (stereo not drawn),inactive,–
CCC1CN2CCc3cc(OC)c(OC)cc3C2CC1CC1=NCCc2cc(O)c(OC)cc21 (stereo not drawn),inactive,–
O=C(N1CCCCC1Cc1ccccc1)n1cc(-c2ccc(-c3ccccc3)cc2)nn1 (stereo not drawn),"inconclusive: 22.4 µM [cytotoxic, single point]",–
CC(C)=CCOc1c2occc2cc2ccc(=O)oc12,"inconclusive: 28.2 µM [cytotoxic, partial curve]",–
COC(=O)[C@@]12C(=O)C(C)C(=O)[C@]1(C)C(C)=C[C@H]1[C@]3(C=O)CC[C@H](OC(C)=O)C(C)(C)[C@H]3CC[C@@]12C (stereo partly drawn),inactive,–
C=CCN1CCC2(C)c3cc(O)ccc3C[C@H]1[C@H]2C,inactive,–
FC(F)(F)c1ccc(N2CCNCC2)nc1Cl,"inconclusive: 39.8 µM [cytotoxic, single point]",–
CCOC(=O)C1(CCc2ccccc2)CCN(Cc2ccc(NC(C)=O)cc2)CC1,inactive,–
C[C@]12CC[C@H]3[C@@H](CCC4=CC(=O)CC[C@@]43C)[C@@H]1CC[C@@H]2C(=O)O,"inconclusive: 25.1 µM [cytotoxic, single point]",–
C[C@]12CC[C@H]3[C@@H](CC[C@@]45O[C@H]4C(O)=C(C#N)C[C@]35C)[C@H]1CC[C@H]2O,inactive,–
CCCN1CCO[C@H]2c3cc(O)ccc3OC[C@@H]21,inactive,–
CC(C)[C@H]1OC(=O)[C@H](Cc2ccccc2)N(C)C(=O)[C@@H](C(C)C)OC(=O)[C@H](Cc2ccccc2)N(C)C(=O)[C@@H](C(C)C)OC(=O)[C@H](Cc2ccccc2)N(C)C1=O,"inconclusive: 6.31 µM [cytotoxic, partial curve, poor fit]",–

# System: Hek293T
# Test: as above
# Conditions: Gynecologic cancer cell panel viability, ATPlite luminescence, 48 h, control line for the selectivity index; series mostly up to 57.5 µM
# Outline: as §1
row,Compound,Potency
1,CC1CCCCCC(=O)c2c(O)cc(O)cc2CC(=O)O1 (stereo not drawn),inactive
2,O=C1N[C@@H](Cc2ccccc2)CN2CCCC[C@@H]12,inactive
3,CCc1[nH]c2ccc(OC)cc2c1CCN(C)C,inactive
4,C[C@H](Nc1ncnc2nc[nH]c12)c1nc2ccc(F)cc2c(=O)n1-c1ccccc1,"inconclusive: 31.6 µM [cytotoxic, single point]"
5,c1ccc(C2CC2)c(OCC2=NCCN2)c1,inactive
6,CC(=O)C1CCOC1=O (stereo not drawn),inactive
7,C=CC(C)(C)C12C=C(O)C(=O)N3/C(=C\c4cnc[nH]4)C(=O)NC31N(OC)c1ccccc12 (stereo not drawn),"inconclusive: 11.2 µM [cytotoxic, single point]"
8,COc1ccc2c(c1)c(CCN(C)C)cn2S(=O)(=O)c1ccccc1,inactive
9,C=C1C2(C)CC3C(C)(O)C4=CC(=O)OC(C)(C)C4=CCC3(C)C13C(=O)OC(C)C3(O)C2=O (stereo not drawn),inactive
10,CCCCCn1cc(C(=O)c2cccc3ccccc23)c2ccccc21,inactive
11,C=C[C@H]1CN2CCC1C[C@H]2[C@H](O)c1ccnc2ccccc12 (stereo partly drawn),inactive
12,C=C1C(=O)OC2/C=C(\COO)CC/C=C(\COC(C)=O)CC(OC(=O)C(C)CC)C12 (stereo not drawn),"inconclusive: 22.4 µM [cytotoxic, single point]"
13,Cc1cc(C(=O)CN2CCCC2)c(C)n1-c1ccc(F)cc1,inactive
14,CCN1C[C@]2(COC)CC[C@H](O)[C@@]34C5C[C@@H]6[C@@H](OC)C[C@@](OC(C)=O)(C5[C@@H]6OC(C)=O)[C@H]([C@H](OC)C23)[C@@H]14 (stereo partly drawn),inactive
15,CCCCn1cc(C(=O)c2cccc3ccccc23)c2ccccc21,"inconclusive: 8.91 µM [cytotoxic, single point]"
16,CC(O)(c1ccccc1)C(Cc1ccc(Cl)cc1)n1cncn1 (stereo not drawn),inactive
17,O=C(NCCN1CCC2(CC1)C(=O)NCN2c1cccc(F)c1)c1ccc(F)c(F)c1,inactive
18,CCOc1ccccc1-n1c(C(C)N2CCN(C(=O)COc3ccc(Cl)cc3)CC2)nc2ccccc2c1=O (stereo not drawn),"inconclusive: 39.8 µM [cytotoxic, single point]"
19,CC(C)[C@H]1OC(=O)[C@H](Cc2ccccc2)N(C)C(=O)[C@@H](C(C)C)OC(=O)[C@H](Cc2ccccc2)N(C)C(=O)[C@@H](C(C)C)OC(=O)[C@H](Cc2ccccc2)N(C)C1=O,"inconclusive: 8.91 µM [cytotoxic, single point]"
